# Measurements from the supplement of paper PMC12217912.
# Some of the results follow. The full chains were built here from the parent and the listed change. Inactive controls read about 0.05.
# B1: TEV protease; numbered along this chain (parent)
# chain: MGESLFKGPRDYNPISSSICHLTNESDGHTTSLYGIGFGPFIITNKHLFRRNNGTLVVQSLHGVFKVKDTTTLQQHLVDGRDMIIIRMPKDFPPFPQKLKFREPQREERICLVTTNFQTKSMSSMVSDTSCTFPSGDGIFWKHWIQTKDGQCGSPLVSTRDGFIVGIHSASNFTNTNNYFTSVPKNFMELLTNQEAQQWVSGWRLNADSVLWGGHKVFMVKPEEPFQPVKEATQL
# Variants of: B1
# Experiment: raw area under fraction-flipped curve 0-4 h after induction (AUC4h, not background-subtracted), DNA-recorder readout of cleavage of the substrate (dimensionless); higher = more cleavage of the substrate by the protease variant
# Conditions: temperature: 34 °C; time window: 0-4 h after rhamnose induction
# Protocol: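 In vivo DNA recorder in E. coli TOP10(DE3) ΔrhaA at 34 °C. Each TEVp single-site mutant (parent TEVp 0) is paired with a single-site variant of the 7-mer TEVs (canonical ENLYFQ|S). The substrate sits between flexible linkers in a Bxb1-sfGFP-TEVs-SsrA fusion, so cleavage stabilises Bxb1 and speeds flipping of a recombination array, read by NGS. The value is the raw area under the fraction-flipped curve over 0-4 h after rhamnose induction (AUC4h), with ≥20 reads per time point. It is not background-subtracted; inactive controls average about 0.047.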
# 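Also: Bxb1 expression induced with 0.2% (w/v) L-rhamnose at OD600 near 0.5, cultures sampled hourly, flipped fraction per protease–substrate barcode pair counted by paired-end Illumina sequencing.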
Variant,area with substrate ENLDFQS,area with substrate ENLFFQS,area with substrate ENLGFQS,area with substrate ENLHFQS,area with substrate ENLIFQS,area with substrate ENLKFQS,area with substrate ENLLFQS,area with substrate ENLMFQS,area with substrate ENLNFQS,area with substrate ENLPFQS,area with substrate ENLQFQS,area with substrate ENLSFQS,area with substrate ENLVFQS,area with substrate ENLWFQS,area with substrate ENLCFQS,area with substrate ENLRFQS,area with substrate ENLEFQS,area with substrate ENLTFQS
T44G,0.059,0.0688,0.0539,0.0532,0.056,0.0635,0.0406,0.0565,0.0531,0.0488,0.0503,0.053,0.0775,0.0973,–,–,–,–
T174P,–,0.0808,–,–,0.0788,–,–,–,0.0621,0.0524,0.0563,–,–,–,0.0503,0.0696,–,–
N172E,–,0.0781,0.0707,–,–,–,–,–,–,0.0524,–,–,–,–,0.0635,–,0.0667,–
P225V,0.0628,0.0885,–,–,0.0826,0.0815,–,0.0714,–,0.0651,–,0.0654,–,0.0473,0.0804,–,0.0576,–
I164M,0.0645,0.0675,–,0.0537,–,0.067,0.0704,0.0539,0.0573,0.0631,0.0546,0.0525,0.0741,0.0618,0.0649,0.0635,0.0629,–
I164N,0.0569,0.0483,–,0.0495,–,–,–,–,0.0592,–,0.0589,0.0535,–,0.053,0.0558,–,0.0521,–
H21R,0.0588,0.0805,–,0.065,0.0839,0.0728,–,0.077,0.0626,0.0528,0.0986,0.075,0.097,–,–,0.0688,0.0477,–
T176A,–,0.0464,–,0.0551,0.0606,–,–,0.0591,0.0854,–,0.0759,0.0635,–,0.0553,0.0676,0.0589,–,–
P155H,0.0573,–,–,0.0279,–,0.0492,0.0644,–,0.0611,0.0444,0.037,0.049,–,–,0.0578,–,0.0495,–
G162S,0.0587,0.08,–,0.0853,–,–,0.0699,–,–,0.069,–,0.0563,–,0.0757,0.064,–,–,0.0639
E223M,0.0575,0.0736,0.0807,0.0713,0.0571,0.0728,–,0.0474,0.0617,0.0593,–,–,–,0.0696,0.0921,0.0436,–,–
F173M,0.0704,0.0953,–,–,–,0.0809,–,–,0.0677,–,0.0638,–,–,–,0.104,–,0.08,–
F180E,0.054,–,–,0.0611,–,–,–,–,–,–,–,–,–,–,0.0444,–,–,–
D11G,0.062,0.0843,–,0.063,–,0.0763,0.0678,0.0775,0.0678,0.0486,0.0798,0.0747,0.0804,0.0742,–,0.0895,0.0628,–
S4T,0.0799,0.112,–,0.0798,–,0.0364,0.0796,–,0.0646,0.0465,0.0668,0.0492,–,0.0732,–,–,0.0714,–
F6Q,0.102,0.088,–,0.0504,0.0979,0.0688,0.0683,0.085,0.0702,0.0644,–,0.0589,0.0683,–,–,0.0715,0.0924,–

Variant,area with substrate ENLDFQS,area with substrate ENLFFQS,area with substrate ENLGFQS,area with substrate ENLHFQS,area with substrate ENLIFQS,area with substrate ENLKFQS,area with substrate ENLLFQS,area with substrate ENLMFQS,area with substrate ENLNFQS,area with substrate ENLPFQS,area with substrate ENLQFQS,area with substrate ENLSFQS,area with substrate ENLVFQS,area with substrate ENLWFQS,area with substrate ENLCFQS,area with substrate ENLRFQS,area with substrate ENLEFQS,area with substrate ENLTFQS
L191M,0.0676,0.0752,0.0533,0.0691,0.0687,0.0796,0.0672,0.0942,0.0645,0.0587,0.077,0.0611,0.0766,0.0691,0.071,0.0738,0.0658,–
T233N,0.0596,0.115,0.0743,0.0732,–,0.0777,0.0797,–,0.0672,0.0455,–,0.0645,–,0.0577,0.0802,0.0642,0.0564,–
K46V,0.0683,0.0665,0.051,0.0628,–,0.0546,0.075,–,0.0622,0.05,–,0.0628,0.0635,–,–,0.0606,–,–
Q198C,0.0618,0.0639,–,–,0.0859,0.0777,0.0752,–,0.0594,0.0649,0.0706,0.0532,0.0765,0.0688,0.071,0.0765,0.0567,0.0575
W199C,0.0667,0.0775,0.0603,0.0608,–,0.0505,–,–,0.0582,0.0628,0.0545,–,0.0552,–,0.0729,–,0.054,–
T31K,0.0551,0.0518,–,–,0.0676,0.06,–,0.0614,0.0604,0.062,–,–,–,0.0587,–,–,0.0563,0.0561
M219Y,0.0639,0.0998,–,–,–,0.0886,–,0.0981,–,0.0622,–,–,–,–,0.0465,0.0741,–,–
M219I,0.0515,0.071,–,0.0717,–,–,0.0506,0.0671,0.0638,0.0541,0.0724,0.0565,–,–,0.0662,–,0.0546,–
F38G,0.0352,–,–,–,–,–,0.0492,–,–,–,0.0456,–,–,–,–,0.0387,–,–
H29S,0.0748,0.0897,0.0693,0.0736,0.0831,0.078,0.0704,–,–,0.0509,0.0721,0.0571,–,0.0696,–,0.0775,0.0662,–
H29V,0.0593,0.0896,–,0.0758,–,0.0736,0.0654,–,–,0.0549,–,0.0655,0.0849,–,–,0.0719,–,–
V220C,0.0693,0.101,0.0664,–,0.0825,0.0835,0.0688,0.0855,0.0582,–,0.0892,0.0585,–,0.0674,0.0542,0.145,0.0684,–
D161Y,0.0582,0.0659,0.0702,0.0515,0.0729,0.0569,0.0569,0.0977,0.0586,0.05,–,0.0641,–,–,0.063,0.0613,0.0488,–
T30N,0.0555,0.0692,–,0.0714,–,0.0716,–,0.067,0.0728,0.0557,0.0643,0.0611,0.0691,0.0607,–,0.0634,–,–
I167Y,0.057,0.0471,–,0.0577,0.0738,–,0.0666,0.0556,0.0729,0.0597,0.0546,0.072,0.0629,–,0.0635,0.0586,0.0681,0.0456
